# Sequences with one replicate were seen in a single cluster, so their values are uncertain.
# System: ATP
# Assay: switch fluorescence ratio, 500 uM ATP over buffer (Cy3 cluster intensity, sum of 5 cycles each) (fold (ratio)); higher = stronger signal-on switching upon ATP binding; sequences stand for … in TCGTCGGCAGCGTCAGATGTGTATAAGAGACAGTTTTTTTTTTTTTTTTTTTTTTTTT…TC
# Conditions: aptamer strand: ATP DNA aptamer (quencher-CACCTGGGGGAGTATTGCGGAGGAAGG + anchor), 100 nM annealed; ATP concentration: 500 uM; one replicate
# How it was run: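 Cy3-labelled switching-strand clusters on a modified Illumina MiSeq flow-cell were annealed to 100 nM quencher-labelled ATP aptamer and imaged first in selection buffer, then after 15 min with 500 uM ATP at 22 °C. NaOH stripping and re-annealing separated each of five buffer/ATP cycles, and clusters outside 100-1000 RFU were excluded. The fluorescence ratio sums target-cycle Cy3 intensity over buffer-cycle Cy3 intensity per cluster and averages it per switch-domain sequence.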
# 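Further: ATP exposure 15 min at 22 °C before imaging.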
row,Sequence,switch fluorescence ratio
1,CGGAAGGAAA,1.05
2,CGGAAGGTAA,1.28
3,CGGAAGTAGG,0.951
4,CGGAATCTTG,0.98
5,CGGAATTCGT,1.03
6,CGGACCCGAT,0.958
7,CGGACTTAGG,1.03
8,CGGAGCCCCT,1.03
9,CGGAGCTGTT,1.14
10,CGGAGGAAGT,1.01
11,CGGAGGCGAC,1.22
12,CGGAGGCTCG,0.984
13,CGGAGGGGT,1.11
14,CGGAGGTATT,1.01
15,CGGAGTCTAG,1.09
16,CGGAGTGTTT,1.04
17,CGGATAAAGC,0.982
18,CGGATAGGTG,1.1
19,CGGATCCACC,1.04
20,CGGATCGAAG,0.973
21,CGGATCTATT,1.01
22,CGGATCTCAC,1.03
23,CGGATTATGT,1.01
24,CGGATTTTCT,0.983
25,CGGCAATATA,3.84
26,CGGCAGTTGA,1.06

row,Sequence,switch fluorescence ratio
1,CGGCATCTAC,2.75
2,CGGCATGGCT,1.1
3,CGGCCAAAGT,0.994
4,CGGCCCGAGT,1.58
5,CGGCCGAAAT,1.07
6,CGGCCTCGCG,1.02
7,CGGCCTGTAG,0.995
8,CGGCGCACTA,1.79
9,CGGCGCATAG,4.19
10,CGGCGCCGG,0.982
11,CGGCGCCGTG,1.09
12,CGGCGCGAA,1.12
13,CGGCGCTCC,1.46
14,CGGCGCTGCG,1.14
15,CGGCGCTTAA,1.53
16,CGGCGGATGA,1.04
17,CGGCGGCCGG,1.01
18,CGGCGGCTTT,0.969
19,CGGCGGTTGC,0.995
20,CGGCGTAATG,1.18
21,CGGCGTGCTT,0.996
22,CGGCTACTGT,1.04
23,CGGCTTAGCA,1.01
24,CGGCTTTGC,1.09
25,CGGGAAAGCT,1.21
26,CGGGAAGCA,0.977

row,Sequence,switch fluorescence ratio
1,CGGGAATTGC,1.12
2,CGGGACGAGG,1
3,CGGGAGACTG,0.9
4,CGGGAGCCGA,0.989
5,CGGGAGGGAT,1.18
6,CGGGAGTGTG,0.984
7,CGGGATAAGG,1.01
8,CGGGCACGGG,1.01
9,CGGGCACTT,0.999
10,CGGGCAGCTT,1.03
11,CGGGCATCCG,0.979
12,CGGGCCCCAG,1.24
13,CGGGCGAATC,1.01
14,CGGGCGTGGG,0.986
15,CGGGCTACTG,1.12
16,CGGGCTCTAG,0.984
17,CGGGGACAAA,1.01
18,CGGGGAGAAG,0.969
19,CGGGGCCCAG,1
20,CGGGGCCGTC,0.925
21,CGGGGCCTTG,0.988
22,CGGGGCGCTT,1.02
23,CGGGGCGTCG,0.98
24,CGGGGCTCAT,1.02
25,CGGGGCTGCG,0.993
26,CGGGGGAATC,1.02

row,Sequence,switch fluorescence ratio
1,CGGGGGATAT,1.06
2,CGGGGGGAAT,1.05
3,CGGGGTACTC,1.25
4,CGGGGTCAAA,1.02
5,CGGGGTGCCC,1.02
6,CGGGGTTGAT,0.945
7,CGGGGTTTCT,0.994
8,CGGGTAGTGT,1.04
9,CGGGTATCGG,0.987
10,CGGGTCGGAC,1.03
11,CGGGTCGGAG,1.03
12,CGGGTGCGAT,0.987
13,CGGGTGGAGA,1.03
14,CGGGTGGCA,0.987
15,CGGGTTAATC,1
16,CGGTAAGGTC,0.952
17,CGGTACACC,1.23
18,CGGTACTAAT,1.03
19,CGGTACTACA,1.06
20,CGGTAGAAAC,0.958
21,CGGTAGAGCA,1.04
22,CGGTAGGGCA,0.974
23,CGGTATCTC,1.05
24,CGGTATGCAG,0.883
25,CGGTCACATC,1.04
26,CGGTCAGAGG,1

row,Sequence,switch fluorescence ratio
1,CGGTCATTCT,0.974
2,CGGTCCAAAA,1.02
3,CGGTCCTTCT,1.05
4,CGGTCGCGCA,0.983
5,CGGTCTATC,1.02
6,CGGTGAACTA,1.04
7,CGGTGACTTT,0.976
8,CGGTGAGAAT,1.07
9,CGGTGAGCTA,0.996
10,CGGTGATCTC,0.991
11,CGGTGCTGAC,1.11
12,CGGTGGATGG,1.01
13,CGGTGGCCGC,0.966
14,CGGTGGGGCC,1.02
15,CGGTGGTTAT,1.01
16,CGGTGTCTTC,0.98
17,CGGTTACTAC,1.08
18,CGGTTATTAA,0.962
19,CGGTTCAGCT,1.22
20,CGGTTCATTC,1.06
21,CGGTTCTAAG,1
22,CGGTTGCAGG,1.04
23,CGGTTGGGAA,1.01
24,CGGTTGGTA,0.982
25,CGGTTGGTGC,1.1
26,CGGTTTATAC,1.47

row,Sequence,switch fluorescence ratio
1,CGGTTTTATG,0.974
2,CGTAAACATT,1.05
3,CGTAAAGTGG,1.01
4,CGTAAATGGG,0.973
5,CGTAACCTAT,0.982
6,CGTAACTGT,1.04
7,CGTAAGGAGA,0.988
8,CGTAAGGCGA,1.04
9,CGTAAGTTCC,1.13
10,CGTAATAGGT,1.06
11,CGTAATCCTA,1.05
12,CGTAATTTA,1.01
13,CGTAATTTAA,1.01
14,CGTACCCTTC,1.07
15,CGTACCGAG,1.01
16,CGTACGGGGG,1
17,CGTACGGTGA,0.993
18,CGTACGTGAT,1.55
19,CGTACTATGT,1
20,CGTACTCACG,1.05
21,CGTAGAAGAA,1.04
22,CGTAGAAGG,1
23,CGTAGAATAT,1.02
24,CGTAGATCAT,0.995
25,CGTAGATTAT,1.01
26,CGTAGGCAC,1.08

row,Sequence,switch fluorescence ratio
1,CGTAGGGTGG,0.997
2,CGTAGGTGAC,1.07
3,CGTAGTCAGT,1.07
4,CGTAGTCTGT,1.01
5,CGTATACACT,0.985
6,CGTATAGAG,0.969
7,CGTATAGGTT,0.965
8,CGTATCAACA,1.01
9,CGTATCGCAC,1.52
10,CGTATCGGCA,1.05
11,CGTATCGT,1
12,CGTATGATGA,1.01
13,CGTATGCCAT,0.973
14,CGTATGGAAA,0.966
15,CGTATGGATT,1
16,CGTATGGGAT,0.966
17,CGTATGTGTC,1.03
18,CGTCAAAATC,1.94
19,CGTCAGGGGA,0.995
20,CGTCATAAGC,1.09
21,CGTCATCGTA,0.994
22,CGTCATGTAG,0.99
23,CGTCATTG,1.04
24,CGTCATTGTT,0.98
25,CGTCCAAAGC,1.73
26,CGTCCACGGG,1

row,Sequence,switch fluorescence ratio
1,CGTCCATTTA,0.961
2,CGTCCCGAGT,1.02
3,CGTCCGACGG,1.24
4,CGTCCTCGGG,1.02
5,CGTCCTGGGA,0.972
6,CGTCGAATCG,0.976
7,CGTCGAGACC,1
8,CGTCGAGAGA,0.972
9,CGTCGCGACC,0.986
10,CGTCGCGCGG,1.06
11,CGTCGGACCG,1.02
12,CGTCGGTAAC,1.31
13,CGTCGTAGGA,0.985
14,CGTCTAGTTA,1.01
15,CGTCTGAGGT,1.02
16,CGTCTGTCAT,1.04
17,CGTCTTAATG,0.987
18,CGTCTTTGGC,0.957
19,CGTGAAGAGG,0.969
